# Data as given in PubChem BioAssay AID1476 (National Center for Advancing Translational Sciences (NCATS), 2009).
# Several values for one entry are separate records, joined by “and”; a condition that tells them apart may be missing. Equal entries are not always repeated. The whole screen tested about 200,000 compounds, of which about 4,500 (2.2%) were called active. Inconclusive results, whose numbers are uncertain, are shown with a selection of clear calls. Calls follow the shape of the dose curve; as a rule, active = well fitted inhibition curve with a large enough effect; inconclusive = small, poorly fitted or top-dose-only effect, or effect the other way; inactive = flat fitted curve, though single readings scatter. Potencies of inconclusive entries are doubtful fits and often do not repeat.
# Target: Cruzipain (Trypanosoma cruzi) (UniProt P25779)
# Sequence of UniProt P25779 (P25779 whole entry, looked up): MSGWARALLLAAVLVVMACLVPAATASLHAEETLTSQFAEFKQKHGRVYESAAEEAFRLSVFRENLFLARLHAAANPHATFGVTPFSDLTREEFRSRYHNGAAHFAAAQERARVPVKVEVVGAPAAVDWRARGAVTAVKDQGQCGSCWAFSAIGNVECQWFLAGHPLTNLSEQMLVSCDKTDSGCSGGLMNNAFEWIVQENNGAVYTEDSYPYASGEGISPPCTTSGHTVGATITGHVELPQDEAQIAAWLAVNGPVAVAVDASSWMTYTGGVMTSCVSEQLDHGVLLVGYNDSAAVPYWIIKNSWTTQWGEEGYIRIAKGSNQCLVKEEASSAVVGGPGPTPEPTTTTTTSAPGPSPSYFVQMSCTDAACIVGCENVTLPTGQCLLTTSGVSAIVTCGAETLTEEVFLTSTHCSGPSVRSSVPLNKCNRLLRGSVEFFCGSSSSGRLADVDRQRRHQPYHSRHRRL
# Assay: qHTS Assay for Promiscuous and Specific Inhibitors of Cruzain (without detergent); also: nearly all actives have a fitted effect of over 40% in size;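 as to max response, negative = inhibition: plate controls were enzyme without inhibitor for no effect and buffer without enzyme for full effect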
# Conditions: purified cruzain, Z-FR-AMC fluorescence, no detergent
# Outline: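 Purified cruzain at 1.5 nM, pre-incubated 15 min with compound at room temperature in 100 mM sodium acetate pH 5.5, 5 mM DTT, 0.00005% Triton X-100. Reaction started with 2 uM Z-FR-AMC; AMC fluorescence increase over 60 s gives rate.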
# Potency is read from the fitted curve at half-maximal effect; tags tell the direction and shape of the fitted curve.
Structure (SMILES),"max response, negative = inhibition",Potency
CCCn1c(SCC(=O)Nc2sc(C)c(C)c2C#N)nnc1C(C)C,inactive: 3.81%,–
CCOc1ccc(NC(=O)CCC(=O)O)cc1,inactive: 5.36%,–
CCN(CC)S(=O)(=O)c1ccc2c(c1)N(CC(=O)N1CCN(c3cccc(OC)c3)CC1)C(=O)CO2,–,"inconclusive: 31.6 µM [activator, single point]"
CCOc1ccc2nc(NC(=S)NCc3ccccc3)sc2c1,–,active: 25.1 µM
CN(C)c1ccc(-c2nc(-c3ccco3)no2)cc1[N+](=O)[O-],–,"inconclusive: 25.1 µM [inhibitor, single point]"
C[C@@H](C[C@@H](O)[C@H](O)C(C)(C)O)[C@@H]1CC[C@]2(C)C3=CC[C@H]4C(C)(C)C(=O)CC[C@]4(C)[C@H]3CC[C@@]12C,–,"inconclusive: 25.1 µM [activator, single point]"
Cc1ccc(C2(c3ccc(C)cc3)CC2C(=O)Nc2ccc([N+](=O)[O-])cc2O)cc1 (stereo unspecified),–,"inconclusive: 39.8 µM [inhibitor, single point]"
CC(=O)OCC(N)C(=O)c1ccccc1 (stereo unspecified),inactive: -1.61%,–
CCOc1ccc(N2C(=O)c3n[nH]c(-c4cccs4)c3C2c2cccc(F)c2)cc1 (stereo unspecified),–,"inconclusive: 39.8 µM [inhibitor, single point]"
O=C1N/C(=C/c2ccc(Br)cc2)C(O)=C1C=NCc1ccccc1,–,active: 20 µM
CCOC(=O)C(CC(C)C)CP(=O)(O)CNC(=O)OCc1ccccc1 (stereo unspecified),–,"inconclusive: 15.8 µM [activator, partial curve]"
CCOC(=O)c1sc(N2C(=O)c3oc4ccc(C)cc4c(=O)c3C2c2ccccc2F)nc1C (stereo unspecified),inactive: 6.4%,–
CCOC(=O)CSc1nc2cc3c(cc2c(=O)n1CCCC(=O)NCCc1ccc(OC)c(OC)c1)OCO3,inactive: 1.75%,–
C[n+]1ccccc1/C=N/O,inactive: -2.48% and inactive: 8.84% and inactive: 10.1%,–
O=C(CNC(=O)c1ccccc1)NCC(=O)OCC(=O)c1ccc(F)cc1,inactive: -7.67%,–
O=C(Nc1ccccc1)N(Cc1cccs1)c1ccc(F)cc1,inactive: -0.301%,–
COc1cc2c(cc1OC)[C@@H]1C(=O)c3ccc(OC)c(CC=C(C)C)c3OC1CO2 (stereo partly specified),–,"inconclusive: 15.8 µM [activator, partial curve]"
COc1ccc(C2c3c(n(C)c4ccccc34)C(=O)N2CC(=O)Nc2cc(Cl)ccc2C)cc1 (stereo unspecified),inactive: -14.4%,–
Cc1c(Cl)cccc1N=c1c([N+](=O)[O-])nn(-c2ccccc2)n1O,–,active: 20 µM
Clc1ccccc1-c1ccc2ncnc(NCCN3CCOCC3)c2c1,inactive: 6.89%,–
Cc1ccc(NC(=S)N(Cc2cccs2)Cc2cc3cc(C)cc(C)c3[nH]c2=O)cc1,–,active: 25.1 µM
CCCc1cc(=O)n2[nH]c(NC(=O)c3ccccc3Cl)nc2n1,inactive: -5.61%,–

Structure (SMILES),"max response, negative = inhibition",Potency
CCOC(=O)N1CCN(C(=O)CN(c2cccc(Cl)c2)S(=O)(=O)c2ccccc2)CC1,–,"inconclusive: 39.8 µM [activator, single point]"
CCn1ncc(C2=NOC(C(=O)Nc3ccccc3C(=O)OC)C2)c1C (stereo unspecified),–,"inconclusive: 39.8 µM [activator, single point]"
CCOP(=O)(OCC)C(NC(=O)c1ccc(Cl)cc1)=C(Cl)Cl,inactive: 5.43%,–
COc1ccc(-c2cc3ccccc3oc2=O)cc1NC(=O)c1ccc(Br)o1,–,active: 25.1 µM
Cc1cc(C)cc(OCC(=O)NC(Cc2c[nH]c3ccccc23)C(=O)O)c1 (stereo unspecified),inactive: 0.159%,–
Cc1cccc(OCC(=O)Nc2c(C(=O)N3CCN(c4ccccc4F)CC3)oc3ccccc23)c1,–,"inconclusive: 15.8 µM [activator, partial curve, poor fit]"
COCCCN(C(C)=O)c1nc(-c2ccc(OC)cc2)cs1,–,"inconclusive: 31.6 µM [activator, single point]"
Cc1cc([N+](=O)[O-])cc(C)c1OCC(=O)N/N=C/c1ccc(OC(=O)c2ccccc2Br)cc1,–,active: 10 µM
COc1ccc(-c2cc(-c3nnc(COC(=O)C4CC4)o3)c3ccccc3n2)cc1OC,–,"inconclusive: 39.8 µM [activator, single point]"
Cc1ccc(NC(=O)c2nn(C34CC5CC(CC(C5)C3)C4)cc2[N+](=O)[O-])cc1,–,"inconclusive: 39.8 µM [inhibitor, single point]"
CC(C)c1ccc(N2C(=O)NC(=O)/C(=C\c3cnc(-c4ccccc4)nc3)C2=O)cc1,–,"inconclusive: 31.6 µM [activator, single point]"
CN(Cc1ccccc1)C(=O)COC(=O)c1cc(-c2ccc(Cl)s2)nc2ccccc12,–,"inconclusive: 31.6 µM [inhibitor, single point]"
Cc1ccccc1NC(=O)c1cccc2c(=O)c3c([nH]c12)CCCC3,inactive: 2.99%,–
COc1ccc(C(=O)Oc2coc(CSc3nnc(NC(=O)c4cccs4)s3)cc2=O)cc1,–,"inconclusive: 39.8 µM [inhibitor, single point]"
Cc1csc(-c2cnn(-c3ccccc3)c2NC(=O)c2ccc(C(F)(F)F)cc2)n1,–,"inconclusive: 31.6 µM [activator, single point]"
CCCCCCOc1ccc(/C=c2\s/c(=C(/C#N)C(=O)NCc3ccco3)n(-c3ccccc3)c2=O)cc1,–,active: 3.16 µM
CC(NC(=O)c1cc(-c2ccccc2)on1)c1ccccc1 (stereo unspecified),–,"inconclusive: 31.6 µM [inhibitor, single point]"
COCCn1c(C)cc(C2=NNC(=Nc3ccc(Cl)cc3Cl)SC2)c1C,–,"inconclusive: 12.6 µM [inhibitor, partial curve]"
Cc1ccc(NC(=O)CSc2ccc3nnc(CCNS(=O)(=O)c4ccccc4)n3n2)cc1Cl,–,"inconclusive: 39.8 µM [activator, single point]"
COc1ccc(C(=O)N2CCN(c3c(C)cccc3C)CC2)cc1OC,–,"inconclusive: 25.1 µM [activator, single point]"
Cc1ccc(C(=O)Nc2nc3n(n2)C(c2ccc(F)cc2)C=C(c2ccccc2)N3)cc1 (stereo unspecified),inactive: -1.11%,–
CCCCNc1nc2c(c(=O)n(C)c(=O)n2C)n1CC(O)COc1ccccc1C (stereo unspecified),–,"inconclusive: 39.8 µM [activator, single point]"

Structure (SMILES),"max response, negative = inhibition",Potency
O=C(Nc1ccc(F)c(Cl)c1)C1CCN(S(=O)(=O)c2ccc3[nH]c(=O)ccc3c2)CC1,inactive: 9.03%,–
CCOC(=O)c1cc2c(=O)n3cccc(C)c3nc2n(Cc2ccco2)c1=NC(=O)c1cccnc1,–,"inconclusive: 39.8 µM [activator, single point]"
O=C(CN1C(=O)COc2ccc(S(=O)(=O)N3CCCC3)cc21)N1CCN(c2ccc(Cl)cc2)CC1,–,"inconclusive: 39.8 µM [activator, single point]"
COc1cccc(-n2cc(C(=O)OCc3ccc(F)c(F)c3)c3ccccc3c2=O)c1,inactive: -1.7%,–
Cc1ccc(NC(=O)/C(=C\c2ccccc2)NC(=O)/C=C/c2ccccc2)cc1,–,"inconclusive: 31.6 µM [inhibitor, single point]"
COc1cccc(-c2cc(C(=O)Nc3cc(OC)c(OC)c(OC)c3)no2)c1,–,"inconclusive: 31.6 µM [activator, single point]"
Cc1ccccc1NC(=O)CSc1nnc(COc2ccc(Cl)cc2)o1,–,"inconclusive: 6.31 µM [activator, single point]"
CCCCCOc1ccc(C(=O)NCC2(c3ccccc3)CCOCC2)cc1,–,"inconclusive: 25.1 µM [activator, partial curve]"
CC(C)c1ccc(C(=O)NCCCN2CCN(CCCNC(=O)c3ccc(C(C)C)cc3)CC2)cc1,–,"inconclusive: 20 µM [activator, single point]"
Cc1nc2cc(-c3ccccc3)nn2c(C)c1CCC(=O)NCc1ccco1,–,"inconclusive: 39.8 µM [activator, single point]"
O=C(Nc1ccc(F)cc1)c1cccnc1N1CCCCC1,inactive: 7.08%,–
CCOC(=O)c1c(C)[nH]c(C)c1S(=O)(=O)N1CCC(C(=O)N2CCN(c3ccccc3)CC2)CC1,–,"inconclusive: 31.6 µM [activator, single point]"
O=C1c2cccc(O)c2C(=O)c2c(O[C@@H]3O[C@H](CO)[C@@H](O)[C@H](O)[C@@H]3O)cccc21,inactive: -5.55%,–
CCCCOc1cc(=O)[nH]c(=O)[nH]1,–,"inconclusive: 39.8 µM [inhibitor, single point]"
CCOC(=O)c1c(NC(=O)CN2C(=O)NC3(CCC(CC)CC3)C2=O)sc(C)c1-c1ccc(C)cc1 (stereo unspecified),–,active: 20 µM
Cc1ccc(-c2csc3ncnc(SCC(=O)NCc4ccc5c(c4)OCO5)c23)cc1,–,active: 25.1 µM
O=C(NNC(=O)c1cccs1)c1ccc(Cl)c(Cl)c1,–,"inconclusive: 39.8 µM [inhibitor, single point]"
O=C1CN(C(=O)COC(=O)/C=C/c2ccc(OC(F)F)cc2)c2ccccc2N1,–,"inconclusive: 31.6 µM [inhibitor, single point]"
CNC(=S)NNC(=O)c1sccc1OCc1cccc(C(F)(F)F)c1,–,"inconclusive: 39.8 µM [inhibitor, single point]"
COc1ccc(NC(=O)/C(Cl)=C(/Cl)S(=O)Cc2ccc(C)cc2)cn1 (stereo unspecified),–,"inconclusive: 31.6 µM [activator, single point]"
c1coc(CNc2nc3sc4c(c3c3ncnn23)CCCC4)c1,–,"inconclusive: 39.8 µM [activator, single point]"
O=C(NC(=S)Nc1ccc(Br)cn1)c1cncc(Br)c1,–,"inconclusive: 39.8 µM [inhibitor, single point]"
